Data from patent US20030143191A1 (published 2003).

Biological target: T1, CCR5 (G-protein coupled chemokine receptor) on human PBMC (human, UniProt P51681 1-352)
T1 construct: whole, on cells; The cells were primary PBMC, not transfectants, so the receptor is assigned through the CCR5 agonist MIP-1β; also called G-protein Chemokine Receptor CCR5
Experiment: 125I-MIP-1β competition binding on human PBMC cultured 2 days; labelled competitor 0.17 nM 125I-MIP-1β; cells preincubated with sample 45 min at 37 °C, then hot ligand 60 min at RT; cell pellet collected by density centrifugation through oil; readout cpm
Experimental: Human PBMC were purified from whole blood and cultured for 2 days. […] After 60 minutes, cell bound ¹²⁵I-MIP-1 was separated from unbound ¹²⁵I-MIP-1, and the radioactivity determined.
PBMCs were grown, purified, and suspended in calcium buffer as described above in Example 49.

T1 sequence (P51681 whole entry): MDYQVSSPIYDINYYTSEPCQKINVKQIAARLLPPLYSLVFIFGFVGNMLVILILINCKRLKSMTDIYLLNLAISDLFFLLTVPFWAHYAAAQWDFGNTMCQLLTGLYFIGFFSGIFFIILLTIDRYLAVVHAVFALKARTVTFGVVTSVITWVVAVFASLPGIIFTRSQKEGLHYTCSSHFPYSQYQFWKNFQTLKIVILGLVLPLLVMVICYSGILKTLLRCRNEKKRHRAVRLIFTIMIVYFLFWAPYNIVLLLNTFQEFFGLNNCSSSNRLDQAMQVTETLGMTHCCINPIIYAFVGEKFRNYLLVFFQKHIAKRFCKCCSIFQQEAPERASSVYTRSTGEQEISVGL

B1: Ckb1 fusion 1948 (pSAC35:d8HCC-1C.O.G[…]:HSA), ck-beta-1 […] fused with the mature form of HSA (other)
chain: GPYHPSECCFTYTTYKIPRQRIMDYYETNSQCSKPGIVFITKRGHSVCTNPSDKWVQDYIKDMKENDAHKSEVAHRFKDLGEENFKALVLIAFAQYLQQCPFEDHVKLVNEVTEFAKTCVADESAENCDKSLHTLFGDKLCTVATLRETYGEMADCCAKQEPERNECFLQHKDDNPNLPRLVRPEVDVMCTAFHDNEETFLKKYLYEIARRHPYFYAPELLFFAKRYKAAFTECCQAADKAACLLPKLDELR[about 200 residues cut from this listing]NLIKQNCELFEQLGEYKFQNALLVRYTKKVPQVSTPTLVEVSRNLGKVGSKCCKHPEAKRMPCAEDYLSVVLNQLCVLHEKTPVSDRVTKCCTESLVNRRPCFSALEVDETYVPKEFNAETFTFHSADICTLSEKERQIKKQTALVELVKHKPKATKEQLKAVMDDFAAFVEKCCKADDKETCFAEEGKKLVAASQAALGL
notes: Albumin fusion protein expressed in yeast
binding result: binds
